Data as given in the supplement of paper PMC8285479.
Structures can show the parent of a compound that is named as a salt. ± gives the standard deviation of the averaged measurements. The full ranking holds about 1,900 compounds; the median of “normalised cell viability (NPI; 0 = phenylarsine oxide control, 1 = DMSO control)” is about 1, and the lowest 2% start at about 0.039. The list shows a part of the results.

Tested on: NCI-H1944
Assay: normalised cell viability (NPI; 0 = phenylarsine oxide control, 1 = DMSO control) (fraction of DMSO control); NCI-H1944 is a non-small cell lung cancer line; higher = more viable cells (less compound toxicity)
Conditions: 6 days
[1] = glucocorticoid arm: hydrocortisone 2.75 uM co-treatment, compound 1 µM
[2] = glucocorticoid arm: hydrocortisone 2.75 uM co-treatment, compound 5 µM
[3] = glucocorticoid arm: hydrocortisone 2.75 uM pre-treated 2 days and continued, compound 1 µM
[4] = glucocorticoid arm: hydrocortisone 2.75 uM pre-treated 2 days and continued, compound 5 µM
[5] = glucocorticoid arm: vehicle, compound 1 µM
[6] = glucocorticoid arm: vehicle, compound 5 µM
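Further: CTB read-out in 384-well plates, mean of triplicate wells, normalised per plate against 1 µM phenylarsine oxide and 0.1% DMSO, compounds added 24 h after seeding.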

SMILES	normalised cell viability [1]	normalised cell viability [2]	normalised cell viability [3]	normalised cell viability [4]	normalised cell viability [5]	normalised cell viability [6]
NCCCCCC(=O)O [6-Aminohexanoic acid]	0.9763 ± 0.0095	0.972 ± 0.022	1 ± 0.011	0.971 ± 0.041	0.99 ± 0.019	0.9787 ± 0.0067
c1ccc2c(CCNc3ccc(Nc4ccncc4)cc3)c[nH]c2c1	1.023 ± 0.0058	0.547 ± 0.02	1.03 ± 0.01	0.971 ± 0.038	0.836 ± 0.042	0.124 ± 0.0029
COc1ccc2c(Oc3ccc(NC(=O)c4c(C)n(CC(C)(C)O)n(-c5ccccc5)c4=O)nc3)ccnc2c1	0.97 ± 0.012	0.9527 ± 0.0071	0.972 ± 0.02	0.946 ± 0.014	0.9923 ± 0.008	0.983 ± 0.018
Nc1nc2c(ncn2COC(CO)CO)c(=O)[nH]1 [Ganciclovir]	0.998 ± 0.013	0.982 ± 0.015	1.003 ± 0.0058	0.983 ± 0.026	0.994 ± 0.0072	1.002 ± 0.0076
C=CC(=O)Nc1cccc(Sc2nc(Nc3ccc(N4CCN(C)CC4)cc3)ncc2Cl)c1	0.859 ± 0.026	0.658 ± 0.041	0.895 ± 0.021	0.7497 ± 0.0025	0.8727 ± 0.0049	0.508 ± 0.082
CC(C)NC[C@@H](C(=O)N1CCN(c2ncnc3c2[C@H](C)C[C@H]3O)CC1)c1ccc(Cl)cc1	0.804 ± 0.055	0.54 ± 0.034	0.822 ± 0.014	0.624 ± 0.024	0.9453 ± 0.0075	0.715 ± 0.04
O=C1c2c(O)cc(O)cc2O[C@H](c2ccc(O)c(O)c2)[C@H]1O (racemic) [(±)-Taxifolin]	1.01 ± 0.013	0.995 ± 0.0078	1.02 ± 0.035	1.01 ± 0.012	1.017 ± 0.0058	1.017 ± 0.0058
Cc1ccc([C@@H]2O[C@H](CO)[C@@H](O)[C@H](O)[C@H]2O)cc1Cc1ccc(-c2ccc(F)cc2)s1 [Canagliflozin]	1 ± 0.014	1.02 ± 0.01	1.02 ± 0.026	1.01 ± 0.018	1.003 ± 0.0058	0.9973 ± 0.0025
CN1CCN(CC(=O)N2c3ccccc3C(=O)Nc3cccnc32)CC1 [Pirenzepine dihydrochloride]	0.985 ± 0.011	1 ± 0.024	1.01 ± 0.02	0.995 ± 0.007	0.983 ± 0.008	0.9803 ± 0.0065
C=CC(=O)Nc1cccc(Oc2nc(Nc3ccc(N4CCN(C)CC4)cc3)ncc2Cl)c1	0.696 ± 0.02	0.41 ± 0.0061	0.737 ± 0.0062	0.521 ± 0.0095	0.557 ± 0.015	0.118 ± 0.024
NC[C@@H]1O[C@H](C23CC4CC(CC(C4)C2)C3)Cc2c1ccc(O)c2O	1.01 ± 0.012	0.0562 ± 0.02	1.01 ± 0.011	0.996 ± 0.077	1.01 ± 0.011	0.0119 ± 0.0027
COc1cc2ncnc(Nc3cccc(Br)c3)c2cc1OC	0.8763 ± 0.0032	0.757 ± 0.017	0.887 ± 0.046	0.802 ± 0.027	0.872 ± 0.031	0.774 ± 0.054
CN(C)CCC(c1ccc(Br)cc1)c1ccccn1 (stereo not drawn) [Brompheniramine hydrogen maleate]	1.03 ± 0.02	1.01 ± 0.027	1.02 ± 0.018	1.01 ± 0.022	1.01	0.992 ± 0.01
